From PubChem BioAssay AID1671188 (National Center for Advancing Translational Sciences (NCATS), 2021)
Hit rate of the full screen: of about 100,000 compounds, about 250 (0.25%) were called active. The inconclusive results got no clear call from the source; some entries with a clear call stand among them for comparison. The call rests on the fitted dose curve; in most records, active means well fitted inhibition curve with a large enough effect; inconclusive means small, poorly fitted or top-dose-only effect; inactive means flat fitted curve, though single readings scatter. Potencies of inconclusive entries are left out as doubtful fits.

target: Alanine aminotransferase 2 (Homo sapiens) (UniProt Q8TD30); assay: Primary qHTS assay for inhibitors of Glutamate pyruvate transaminase 2 (GPT2); conditions: Recombinant GPT2, coupled pyruvate oxidase/HRP Amplex Red fluorescence; series mostly up to 57.7 µM; further: nearly all actives have a fitted effect of over 60% in size
Procedure, shortened: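 GPT2 10ng/uL, a-KG 250uM, L-Ala 2mM, HEPES pH7.5 + 0.0001% Tween; 30 min RT. Then Amplex mix (PO/HRP/ThPP), 30 min RT dark, fluorescence. AOA 50uM used as positive control.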
Potency means the concentration at half of the fitted maximal effect; tags describe the fitted curve by direction and shape.

UniProt Q8TD30, sequence (Q8TD30 whole entry, looked up): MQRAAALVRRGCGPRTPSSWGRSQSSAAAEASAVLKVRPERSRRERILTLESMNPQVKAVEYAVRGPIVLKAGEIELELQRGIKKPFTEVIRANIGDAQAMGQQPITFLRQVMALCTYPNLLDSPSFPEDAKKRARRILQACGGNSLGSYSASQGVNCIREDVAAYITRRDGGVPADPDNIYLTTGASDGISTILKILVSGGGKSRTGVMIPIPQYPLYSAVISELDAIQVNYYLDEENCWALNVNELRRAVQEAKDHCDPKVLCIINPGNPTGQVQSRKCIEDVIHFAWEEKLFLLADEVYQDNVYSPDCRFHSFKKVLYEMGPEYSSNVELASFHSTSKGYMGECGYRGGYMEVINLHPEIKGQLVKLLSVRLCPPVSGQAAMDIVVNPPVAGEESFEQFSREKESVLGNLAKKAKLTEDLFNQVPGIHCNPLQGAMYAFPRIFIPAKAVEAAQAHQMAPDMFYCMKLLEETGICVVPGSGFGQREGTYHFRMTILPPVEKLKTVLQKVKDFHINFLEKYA

SMILES	Potency
COC(=O)CNC(=O)c1cn2cc(-c3ccc(C)cc3)sc2n1	inconclusive [inhibitor, single point]
CNC(=O)CCN(C)c1nccc(-c2ccc(C)nc2C)n1	inconclusive [inhibitor, partial curve, poor fit]
COc1ccc2[nH]cc(CN3CCC4(CC3)CC(C(=O)N3CCOCC3)N(C)C4)c2c1 (stereo unspecified)	inactive
CS(=O)(=O)c1ccc(O[C@H]2COCCN(C(=O)c3cnccn3)C2)cc1	inactive
O=C1CC2(CCN([S+](=O)([O-])c3cccs3)CC2)Oc2ccccc2N1	inactive
Cc1ccccc1C(=O)NC[C@@H]1CC[C@H]2C[C@@H]1C2(C)C	inactive
O=C1OCC2=C1C(c1ccccc1)NC(=O)N2CC(=O)N1CCOCC1 (stereo unspecified)	inconclusive [inhibitor, partial curve, poor fit]
O=C1CCN(C(=O)Nc2ccccc2)CCCCCCN1	inconclusive [inhibitor, single point]
O=C(NC1CCCCC1)c1ccc2oc(-c3ccncc3)nc2c1	inactive
CCC(=O)Nc1ccc(-c2c(-c3cc(OC)cc(OC)c3)nn(-c3ccc(C)cc3)c2OC(C)=O)cc1	active: 6.31 µM
CCOCCn1c(C2CCN(CCc3ccc(C(C)(C)C(=O)O)cc3)CC2)nc2ccccc21	inconclusive [inhibitor, full curve, poor fit]
Cc1ccc(CN2CCC3(Cc4ccccc4CNC3=O)C2)cc1C (stereo unspecified)	inconclusive [inhibitor, single point]
O=C(Nc1ccccc1)N1C[C@@H]2OCC(=O)N(Cc3ccccn3)[C@@H]2C1	inconclusive [inhibitor, full curve, poor fit]
CN(CCc1noc(C2CN(C(=O)CN3CCCCCC3)C2)n1)S(C)(=O)=O	inconclusive [inhibitor, single point]
CC(C)(O)C1CC=C(C(=O)OC[C@H]2O[C@@H](OC(=O)C3=CCC(C(C)(C)O)CC3)[C@H](O)[C@@H](O)[C@@H]2O)CC1 (stereo partly specified)	inconclusive [inhibitor, single point]
Cc1nn(Cc2ccccc2)c(C)c1[C@@H]1C=C[C@@H](NC(=O)c2ccc3c(c2)OCO3)C1	inactive
OCC1(Cc2cccc(Cl)c2)CCCN(Cc2nc(-c3ccc(F)cc3)cs2)C1 (stereo unspecified)	inconclusive [inhibitor, single point]
CCCc1noc(-c2ccn3c(CNC(=O)c4cccc(Cl)c4)nnc3c2)n1	inactive
Cc1ccc(-c2noc([C@@H]3C[C@H](NS(=O)(=O)c4ccccc4)CN3C)n2)cc1	inconclusive [inhibitor, partial curve, poor fit]
COC(=O)c1cc(CN2CCCC3(CCNC3)C2)ccc1O (stereo unspecified)	inconclusive [inhibitor, full curve, poor fit]
CCC(CC)C(=O)N1C[C@@H](CO)[C@H](c2nc(COC)no2)C1	inconclusive [inhibitor, single point]

SMILES	Potency
COc1ccc(CNC(=O)c2cc3c(N4CCSCC4)nc(C)cn3n2)c(OC)c1	inconclusive [inhibitor, single point]
O=C(COc1ccc(F)cc1)NCC(=O)N1CCN(c2ccccn2)CC1	inconclusive [inhibitor, single point]
Cn1cccc1CNC(=O)Cn1nc2c(cc1=O)CCCC2	inconclusive [inhibitor, partial curve, poor fit]
COCCn1c(=O)c(C(=O)N2CCN(C(=O)Nc3ccccc3)CC2)nc2cccnc21	inactive
Cc1noc(C)c1CC(=O)N1CCCC2(C1)Nc1cccnc1NC2=NC1CCCC1 (stereo unspecified)	inconclusive [inhibitor, full curve, poor fit]
Cc1ccc(C(=O)NC[C@H]2O[C@@H](CC(=O)N3CCc4ccccc43)[C@H](O)[C@@H]2O)cc1	inconclusive [inhibitor, single point]
CCCc1cc(C(=O)N2CCc3c(nc(-c4cccnc4)[nH]c3=O)C2)n[nH]1	inconclusive [inhibitor, single point]
O=c1[nH]c(C2CCCN(Cc3ccc(F)cc3)C2)nn1-c1ccccc1 (stereo unspecified)	inconclusive [inhibitor, full curve, poor fit]
COc1ccc(CNC(=O)c2noc(-c3ccc(F)cc3)n2)cc1OC	inactive
Cc1ccc(C(C(=O)NCc2cc(=O)[nH]cn2)N(C)C)cc1 (stereo unspecified)	inconclusive [inhibitor, partial curve, poor fit]
CN(Cc1ccccc1)Cc1cc(CC2(NCc3ccc(OC(F)(F)F)cc3)COC2)no1	inconclusive [inhibitor, single point]
COC(=O)[C@@H]1Cc2ncn(Cc3ccc(Cl)cc3)c2CN1S(=O)(=O)c1cccc2c(N(C)C)cccc12	inconclusive [inhibitor, partial curve, poor fit]
CCN(CC)c1ccc(NC(=O)CCn2ccn3nc4c(c3c2=O)CCCC4)c(C)c1	inconclusive [inhibitor, full curve, poor fit]
O=C(O)[C@@H]1CN(S(=O)(=O)N2CCOCC2)C[C@H]1c1cccnc1	inconclusive [inhibitor, single point]
COc1ccc(CCC(=O)c2c(O)cc(O)cc2O[C@@H]2O[C@H](CO)[C@@H](O)[C@H](O)[C@H]2O)cc1	inconclusive [inhibitor, single point]
CCCN1CCN(C(=O)CC2CCCN(c3cnn(C)c(=O)c3)C2)CC1 (stereo unspecified)	inconclusive [inhibitor, full curve]
O=C(Cc1cccc(F)c1)NC1CCN(c2cc(-c3cccs3)[nH]n2)C1 (stereo unspecified)	inconclusive [inhibitor, partial curve]
COc1ccccc1Nc1cnc2ccc(-c3ccc(OC)c(OC)c3)nn12	inconclusive [inhibitor, partial curve, poor fit]
CCCOCCCNC(=O)c1c(C)noc1-c1ccc(C(C)(C)C)cc1	inconclusive [inhibitor, single point]
CNC(=O)[C@@H](C1CCCCC1)N1CCC[C@H]1C(=O)N1CCN(C)CC1	inconclusive [inhibitor, single point]
CNC(=O)c1cc(-c2ccc([S+](C)(=O)[O-])cc2)cc2c1OCCN2Cc1cccnc1	inconclusive [inhibitor, partial curve, poor fit]

SMILES	Potency
CCCc1cc(C(=O)N2CCCC(Cc3ccccc3F)(C(=O)OCC)C2)n(C)n1 (stereo unspecified)	inconclusive [inhibitor, full curve, poor fit]
Cc1ccc(Nc2ccnc(N3CC4CCC(C3)N4CC(F)(F)F)n2)cc1	inconclusive [inhibitor, partial curve]
O=C(NCCc1ccncc1)c1ccc(OC2CCN(C(=O)C3CC3)CC2)cc1	inconclusive [inhibitor, full curve, poor fit]
COc1ccc([C@H]2Cc3cccc(O)c3C(=O)O2)cc1OC	inconclusive [inhibitor, single point]
CCN1CCN(C(=O)c2ccc(-c3nnc4ccc(NC(=O)C5CC5)cn34)cc2)CC1	inconclusive [inhibitor, single point]
F[C@@H]1CN(Cc2ccc(C(F)(F)F)cc2)C[C@@H]1OCc1nc2ccccc2[nH]1	inconclusive [inhibitor, full curve]
COc1ccccc1C(=O)N1CCCC(C(=O)N2CCCC(c3nc4ncccc4[nH]3)C2)C1 (stereo unspecified)	inactive
COc1ccc(N2CCN(C(=O)c3cc4c(s3)-c3ccccc3S(=O)(=O)C4)CC2)cc1	inconclusive [inhibitor, partial curve]
CCS(=O)(=O)N1CCC(Nc2cccnc2)C1 (stereo unspecified)	inconclusive [inhibitor, partial curve, poor fit]
COc1ccnc(N2CCC(CO)(Cc3ccccc3C(F)(F)F)CC2)n1	inconclusive [inhibitor, single point]
CC(C)c1nc2c(c(-c3ccc(O)cc3)n1)CN(CC1CCCCC1)CC2	inactive
COCCN1Cc2ccc(NCC(C)C)nc2C(C)(C(=O)NC2CC2)C1 (stereo unspecified)	inconclusive [inhibitor, partial curve, poor fit]
CN(C)Cc1nnc(C2CCN(C(=O)CCc3ccncc3)CC2)n1C	inconclusive [inhibitor, partial curve, poor fit]
CN(C)c1ccc(NC(=O)NS(=O)(=O)c2ccc(Cl)cc2)cc1	inconclusive [inhibitor, full curve, poor fit]
COc1ccc(-c2cc(N3CCCN(C(=O)c4ccc(N(C)C)cc4)CC3)n[nH]2)cc1	inconclusive [inhibitor, single point]
O=C(CNC(=O)c1ccc(-c2cnc3ccccc3c2)cc1)NCc1ccc(F)cc1	inconclusive [inhibitor, partial curve, poor fit]
C#CCNC(=O)c1onc(-c2ccc(F)cc2)c1[C@H](C)O	inconclusive [inhibitor, single point]
Cc1ccc(N2CCC(NC(=O)Cc3cccc(F)c3)C2=O)cc1 (stereo unspecified)	inactive
COc1ccc2nc(C[C@@H]3C[C@@H](C(C)C)[C@H](CNC4CCCCC4)C=C3C)[nH]c2c1	inactive
